Results taken from patent publication US20230272104A1 (LEGEND BIOTECH IRELAND, published 2023).

Columns and labels:
[1] = molecular target: T1, human CD20 (membrane spanning 4-domains A1, MS4A1) on cells (human, UniProt P11836 1-297); test: flow cytometry, mAb titrated on Raji cells, PE anti-human IgG1 Fc detection
T1 construct: whole, on cells; Target cells used: Raji, K562-CD20, CHO-CD20, Daudi, RPMI-8226 (very low CD20); also called CD20 receptor; CD20 antigen
T1 sequence (looked up): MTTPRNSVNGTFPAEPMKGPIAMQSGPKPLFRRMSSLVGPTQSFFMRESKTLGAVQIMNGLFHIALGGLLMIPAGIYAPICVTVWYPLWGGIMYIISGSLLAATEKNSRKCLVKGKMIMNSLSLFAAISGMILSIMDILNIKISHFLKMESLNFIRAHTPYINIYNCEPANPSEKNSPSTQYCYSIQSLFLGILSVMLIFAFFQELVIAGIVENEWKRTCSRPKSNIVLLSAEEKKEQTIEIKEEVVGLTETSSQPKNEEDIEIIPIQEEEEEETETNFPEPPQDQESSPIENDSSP
Source text: (§1) Each of three exemplary of anti-CD20 VHH sequences (clone ID: VHH-273, VHH-466 and VHH-496) with human IgG1 Fc fragment sequence (SEQ ID NO: 159) were cloned into a mammalian expression vector—pcDNA3.4, to facilitate the recombinant protein expression. The DNA codons were further optimized for optimal expression in mammalian host cell—Expi293F. The antibodies were harvested from the supernatant of cell culture, one-step purified by MabSelect SuRe LX and sterilized via a 0.2 μm filter. The purified antibody concentrations were determined by A280 and reached 2-6 mg/mL with ˜90% purity. Anti-CD20 scFv-huIgG1Fc mAb with amino acid sequence of Rituximab (C2B8) scFv shown in SEQ ID NO: 158 and anti-CD20 Fab-huIgG1Fc mAb with amino acid sequences of Leul6 VH-CH1 and VL-CL shown in SEQ ID NO: 163 and SEQ ID NO: 164 were used as positive controls for the cell surface binding assay. CD20 positive cell lines—Raji, K562-CD20 and negative cell line—K562 were re-suspended in complete culture medium, cells concentration was diluted to 1×10⁶ cells/mL and the staining was performed in 2×10⁵ cells per well. The mAbs were serially diluted from maximal concentration of 2000 nM (3-fold reduction, 12 pts) and added according to the experimental plan and protocol. The mAbs and cells were co-incubated for 1 hour at 4° C. Then, the cells were washed with […] of DPBS+0.5% FBS and spun at 300 g for 5 mins, 4° C. The cells were stained with the detection antibody—PE-conjugated mouse anti-human IgG1 Fc (BioLegend, Cat. #409304, 1:100) for 40 mins at 4° C. The cells were then washed again and re-suspended with 200 μL of DPBS+0.5% FBS for flow cytometric analysis on a NovoCyte Flow Cytometer (ACEA Biosciences). The FACS data was analyzed by Novoexpress software, and the MFI (median fluorescent intensity) was analyzed by GraphPad PRISM version 6.0.

[2] = molecular target: T1, human CD20 (membrane spanning 4-domains …); test: as above; remark: listed apart in the source
Source text: as §1

[3] = molecular target: T1, human CD20 (membrane spanning 4-domains …); test: flow cytometry, mAb titrated on K562-CD20 cells, PE anti-human IgG1 Fc detection
Source text: as §1

B1: VHH-273-huIgG1Fc mAb (Fc fusion)
chain: EVQLVESGGGLVQAGGSLRLSCAASGRTFSSYNMGWFRQAPGKEREFVAVVDWSGGSPYYADSVKGRFTISRDNGKNTVYLQMNSLKPEDTAVYYCAGRVQYGSSWSGDYWGQGTQVTVSS[human IgG1 Fc not printed]
notes: VHH placed before the Fc after the name VHH-huIgG1Fc; Expressed in Expi293F; also called anti-CD20 VHH-huIgG1Fc mAb (VHH clone ID: VHH-273)
[1]
  EC50: 14.3 nM
[2]
  EC50: 9.8 nM
[3]
  EC50: 4.9 nM

B2: VHH-466-huIgG1Fc mAb (Fc fusion)
chain: QVHLVESGGGSVQAGGSLRLSCQASADIRLFYLMGWFRQAPGKEREEVARVNADDSINYVASVKGRFTISKDNAKNTLYLQMDSLKPEDTATYYCAAGRTWNSGFEYWGQGTQVTVSS[human IgG1 Fc not printed]
notes: VHH placed before the Fc after the name VHH-huIgG1Fc; also called anti-CD20 VHH-huIgG1Fc mAb (VHH clone ID: VHH-466)
[1]
  EC50: 9.12 nM
[2]
  EC50: 8.9 nM
[3]
  EC50: 4.7 nM

B3: VHH-496-huIgG1Fc mAb (Fc fusion)
chain: QIQLVESGGGLVQPGGSLRLSCAASGFTFSNYPMTWLRQAPGKGLESVSDITSGGDRPYYADSVKGRFTISRDNAKNMLYLEMNSLKTEDTAVYYCATWDRTLTGQGTQVTVSS[human IgG1 Fc not printed]
notes: VHH placed before the Fc after the name VHH-huIgG1Fc; also called anti-CD20 VHH-huIgG1Fc mAb (VHH clone ID: VHH-496); VHH-496-huIgGIFc mAb
[1]
  EC50: 16 nM
[2]
  EC50: 13.5 nM
[3]
  EC50: 5.1 nM
